# Measurements reported in PubChem BioAssay AID588795 (National Center for Advancing Translational Sciences (NCATS), 2011).
# Where “and” joins values, the source holds several entries; their conditions need not be identical. Equal entries are not always repeated. In all, about 390,000 compounds went through this assay and about 1,400 (0.36%) were called active. The inconclusive results got no clear call from the source; some entries with a clear call stand among them for comparison. The call rests on the fitted dose curve; in most records, active means well fitted inhibition curve with a large enough effect; inconclusive means small, poorly fitted or top-dose-only effect; inactive means no such curve, though single readings can be large or run the other way. Potencies beside an inconclusive call are fits to weak or partial responses and may not hold up.
# Target: Flap endonuclease 1 (Homo sapiens) (UniProt P39748)
# UniProt P39748, sequence (P39748 whole entry, looked up): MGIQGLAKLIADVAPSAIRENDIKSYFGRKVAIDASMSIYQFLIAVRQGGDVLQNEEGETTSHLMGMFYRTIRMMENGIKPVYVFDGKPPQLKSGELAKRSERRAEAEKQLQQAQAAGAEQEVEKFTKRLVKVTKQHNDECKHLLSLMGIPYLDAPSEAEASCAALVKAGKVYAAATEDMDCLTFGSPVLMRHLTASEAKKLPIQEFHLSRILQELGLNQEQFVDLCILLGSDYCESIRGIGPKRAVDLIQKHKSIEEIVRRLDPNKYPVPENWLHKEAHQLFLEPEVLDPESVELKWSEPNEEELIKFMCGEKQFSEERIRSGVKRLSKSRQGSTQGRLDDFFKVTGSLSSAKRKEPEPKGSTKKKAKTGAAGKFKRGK
# Assay: qHTS Assay for the Inhibitors of Human Flap endonuclease 1 (FEN1). Further: nearly all actives have a fitted effect of over 65% in size.
# Conditions: Recombinant FEN1 flap cleavage, fluorescence, 15 min; series mostly up to 114 µM; activity change, negative = inhibition: at the top concentration
# Outline: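 Compounds are tested as a concentration series against 10 nM FEN1; after a 15 min room-temperature preincubation, 50 nM substrate starts cleavage, with plate reads at 0 and 15 min. Normalized responses are fitted by a Hill equation.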
# On the % scale 0 is the no-effect control and ±100 the full control effect; potency means the concentration at half of the fitted maximal effect; tags describe the fitted curve by direction and shape.
SMILES,Potency,"activity change, negative = inhibition"
COc1cc2c(cc1OC)C1(C)N(CC2)C(C(C)=O)=NN1c1ccc(Cl)cc1 (centres undefined),"inconclusive: 50.1 µM [inhibitor, partial curve, poor fit]",
Cc1ccc(/C=[N+](\[O-])c2ccc(N(C)C)cc2)c2nsnc12,"inconclusive: 25.1 µM [inhibitor, partial curve, poor fit]",
CN(C)CC1CC/C(=C\c2ccc(O)cc2)C1=O (centres undefined),active: 56.2 µM,
CCCCCCCCCCCC1=C(O)C(=O)C=C(O)C1=O,"inactive and inconclusive: 17.8 µM [inhibitor, full curve, poor fit]",
COc1cc2ncc(S(=O)(=O)c3ccccc3)c(N3CCCC(C)C3)c2cc1OC (centres undefined),"inconclusive: 31.6 µM [inhibitor, single point]",
CCOC(=O)N1CCN(S(=O)(=O)c2c(C)nc3scc(C)n3c2=O)CC1,"inconclusive: 70.8 µM [inhibitor, partial curve, poor fit]",
O=C1c2cccc3cc([N+](=O)[O-])cc(c23)C(=O)N1CCN1CCCC1,active: 14.1 µM,
CC1=C(O)C(=O)C(C2=C(O)C(=O)C(C)=C(O)C2=O)=C(O)C1=O,,inactive: 11.1%
COc1cccc(Nc2nn3c(=O)c4ccccc4nc3s2)c1,"inconclusive: 79.4 µM [inhibitor, partial curve, poor fit]",
Cc1oc2ccc(O)c(CN3CCCCCC3)c2c1C(=O)Nc1cccc(Cl)c1C,,inactive: 2.02%
O=C1c2ccccc2CC1(Cc1ccccc1)Cc1ccccc1,"inconclusive: 89.1 µM [inhibitor, partial curve, poor fit]",
O=C(O)c1ccc(/C=N/NC(=O)c2ccc(CN3c4cccc5cccc(c45)S3(=O)=O)cc2)cc1,"inconclusive: 89.1 µM [inhibitor, single point]",
Cc1c(-c2nsc(NC(=O)c3cccs3)n2)nnn1-c1ccc(Cl)cc1,"inconclusive: 89.1 µM [inhibitor, partial curve, poor fit]",
COc1cccc(/C=C2/CN(C)CC3=C2OC(N)=C(C#N)C3c2cccc(OC)c2)c1 (centres undefined),"inconclusive: 31.6 µM [inhibitor, partial curve, poor fit]",
c1ccc(-c2nc3c4ccccc4ccn3c2CN2CCOCC2)cc1,"inconclusive: 89.1 µM [inhibitor, partial curve, poor fit]",
CCOC(=O)C(CC)Sc1ncnc2sc3c(c12)CCCC3 (centres undefined),,inactive: -18.1%
O=C(COC(=O)c1ccc(Cl)c(S(=O)(=O)N2CCOCC2)c1)NCc1ccco1,,inactive: 0.632%
CCC(CO)Oc1cc(NCc2cccc(F)c2)c2ncn(C(C)C)c2c1 (centres undefined),"inconclusive: 22.4 µM [inhibitor, partial curve, poor fit]",
COc1ccc(OC)c(-c2csc(NC(=O)CSc3ccccc3)n2)c1,"inconclusive: 79.4 µM [inhibitor, partial curve, poor fit]",
COc1cc(/C=C2\CCn3c2nc2cc(C(=O)O)ccc2c3=O)ccc1OC(F)F,"inconclusive: 22.4 µM [inhibitor, full curve, poor fit]",
COc1ccc(C(=O)CC2(O)C(=O)N(CCc3ccccc3)c3ccc(Br)cc32)cc1OC (centres undefined),"inconclusive: 44.7 µM [inhibitor, partial curve, poor fit]",
CCOc1ccc(Br)cc1S(=O)(=O)Nc1ccc(C(=O)OC(C)C(=O)N(C)c2ccccc2)cc1 (centres undefined),"inconclusive: 79.4 µM [inhibitor, partial curve, poor fit]",

SMILES,Potency,"activity change, negative = inhibition"
NC(=O)C1CCN(C2=C(NS(=O)(=O)c3ccccc3)C(=O)c3ccccc3C2=O)CC1,,inactive: 5.8%
COc1ccc(-n2nc(C(=O)N3CCN(c4cccc(C)c4)C(C)C3)c3c4ccccc4n(C)c3c2=O)cc1Cl (centres undefined),,inactive: -22.6%
CC(=O)Nc1cccc(-c2nnc(SCC(=O)c3ccc([N+](=O)[O-])cc3)o2)c1,"inconclusive: 79.4 µM [inhibitor, single point]",
COc1ccc(CNC(=O)c2ccc3c(c2)N(C)CCS3)cc1,"inconclusive: 79.4 µM [inhibitor, single point]",
Cc1cccc(S(=O)(=O)c2cn(Cc3ccc(F)cc3)c3cc(N4CCOCC4)c(F)cc3c2=O)c1,,inactive: 13.2%
O=C(NC1CCCC1)c1ccc(CSc2nc3cccnc3n2Cc2ccccc2F)cc1,,inactive: -9.58%
C/C(=N/NC(=O)c1cc(O)c(O)c(O)c1)c1ccc([N+](=O)[O-])cc1,"inconclusive: 8.91 µM [inhibitor, full curve, poor fit]",
CCOc1ccc2[nH]c3c(NCCCOC)ncnc3c2c1,"inconclusive: 89.1 µM [inhibitor, single point]",
Cc1ccc2c(CSc3nc4ccccc4c(=O)n3CCCO)cc(=O)oc2c1C,"inconclusive: 22.4 µM [inhibitor, partial curve, poor fit]",
O=C(CCN1C(=O)/C(=C/c2ccc(Cl)cc2)SC1=S)Nc1cccc(C(=O)O)c1,"inconclusive: 89.1 µM [inhibitor, single point]",
O=C(/C=C/c1cccs1)Nc1scc(-c2ccccc2)c1C(=O)O,"inconclusive: 100 µM [inhibitor, single point]",
COc1ccc(C2=CC(=O)C[C@H](COCc3ccccc3)N(C(=O)OC(C)(C)C)O2)cc1,"inconclusive: 79.4 µM [inhibitor, partial curve, poor fit]",
Cc1ccnc2c1ccc1cccnc12,"inconclusive: 39.8 µM [inhibitor, full curve]",
Cc1[nH]c(=O)cc2ccccc12,"inconclusive: 89.1 µM [inhibitor, partial curve, poor fit]",
COCCNC(=O)CCSc1nc(-c2ccc(OC)cc2)cc(C(F)(F)F)n1,inactive,
COC(=O)c1cc2ccccc2c(=O)s1,"inconclusive: 79.4 µM [inhibitor, partial curve, poor fit]",
COc1cc(OC)cc(N2C(=O)CC(N3CCC(C(=O)N4CCCCC4)CC3)C2=O)c1 (centres undefined),,inactive: -0.724%
COc1cccc(NC(=O)Cn2c(=O)n(CCc3cccc(C)c3)c(=O)c3ccccc32)c1,"inconclusive: 89.1 µM [inhibitor, partial curve, poor fit]",
CCN(CC)C(=O)CSc1ncnc2c(-c3cccs3)nsc12,"inconclusive: 50.1 µM [inhibitor, partial curve, poor fit]",
CCN1C=C(Cc2ccccc2C)C2=C(C1)C(c1ccccc1C)C(C#N)=C(N)O2 (centres undefined),"inconclusive: 50.1 µM [inhibitor, partial curve, poor fit]",
COc1ccc(/C=N/NC(=O)c2cc3c(OC)ccc(OC)c3[nH]2)cc1O,"inconclusive: 25.1 µM [inhibitor, single point]",
COCCCNC(=O)C1CCN(c2nc3ccc(Cl)cc3[nH]2)CC1,"inconclusive: 39.8 µM [inhibitor, single point]",

SMILES,Potency,"activity change, negative = inhibition"
CSc1ccc(C2C(C#N)=C(N)Oc3c2ccc(=O)c2c(C)oc(C)c32)cc1 (centres undefined),"inconclusive: 44.7 µM [inhibitor, partial curve]",
CCN(CC)C(=O)C1CCCN(c2ncnc3c2c(-c2ccccc2)cn3-c2cccc(C)c2)C1 (centres undefined),,inactive: -5.06%
O=C1NN(c2ccccc2)C(=O)/C1=C\c1ccc(-c2cc([N+](=O)[O-])ccc2O)o1,"inconclusive: 89.1 µM [inhibitor, single point]",
O=C(c1cc2cc3ccc(Cl)cc3nc2o1)N1CCN(c2cccc(Cl)c2)CC1,,inactive: -6.24%
O=c1c2nncn2ccn1-c1ccc(F)c(F)c1,,inactive: 10.5%
COc1ccc(OC)c(NC(=O)CC2SC(=Nc3ccccc3)N(CCc3ccccn3)C2=O)c1 (centres undefined),"inconclusive: 31.6 µM [inhibitor, partial curve, poor fit]",
CCOC(=O)C1=CN(Cc2cccc(Br)c2)S(=O)(=O)N(C)C1C (centres undefined),"inconclusive: 50.1 µM [inhibitor, partial curve, poor fit]",
COc1ccc(S(=O)(=O)N(CCc2ccccc2)CC(=O)Nc2cc(C)cc(C)c2)cc1OC,"inconclusive: 50.1 µM [inhibitor, partial curve, poor fit]",
Cc1cc(N2CCC(C)CC2)nc2ccc(NC(=O)CCC(=O)N3CCN(c4ccccc4F)CC3)cc12,"inconclusive: 12.6 µM [inhibitor, partial curve, poor fit]",
Cc1ccc(CNC(=O)Cn2ccn(-c3ccc(F)cc3)c(=O)c2=O)cc1,,inactive: 0.413%
CCc1ccc(OCc2ccccc2C(=O)Nc2ccc3nc(C)cc(N)c3c2)cc1,"inconclusive: 89.1 µM [inhibitor, single point]",
CCNC(=S)N1CCC(C(O)(c2ccccc2)c2ccccc2)CC1,,inactive: -6.47%
CCN(C[C@H]1N[C@@](CC)(C(=O)OC)[C@H]2C(=O)N(Cc3ccccc3)C(=O)[C@@H]12)S(=O)(=O)c1ccc(F)cc1,"inconclusive: 79.4 µM [inhibitor, partial curve, poor fit]",
COc1cccc(C2[C@H](C)C3(CCN2C)OCCO3)c1 (some centres undefined),,inactive: -4.03%
COc1cc(/C=N/N2C(=O)CSC2=S)cc(Br)c1O,active: 79.4 µM,
COc1ccc(-c2cc(=O)c3ccccc3s2)cc1,"inconclusive: 79.4 µM [inhibitor, partial curve, poor fit]",
Cc1cc(Br)ccc1NC(=O)COC(=O)c1ccccc1OCC(=O)N(C)C,,inactive: -0.719%
O=C(c1noc2c1CCCC2)N1CCC(CO)(Cc2ccccc2Cl)CC1,,inactive: 0.271%
CSc1nc2c(c(=O)[nH]c(=O)n2C)n1CCCc1ccccc1,"inconclusive: 39.8 µM [inhibitor, single point]",
Cc1cc(Nc2ccc(O)cc2)ccc1N,"inconclusive: 2.82 µM [inhibitor, partial curve, poor fit]",
